Among all 310,000 compounds or so, about 2,200 (0.71%) showed an effect of 50% or more. The effect is printed as a negative number. Some of the results follow.
Each compound was assayed against human ether-à-go-go-related gene (hERG) potassium channel (human, UniProt Q12809) (assay: primary screen, population patch clamp on CHO cells stably expressing hERG).
Chain of human ether-à-go-go-related gene (hERG) potassium channel (Q12809 whole entry, looked up): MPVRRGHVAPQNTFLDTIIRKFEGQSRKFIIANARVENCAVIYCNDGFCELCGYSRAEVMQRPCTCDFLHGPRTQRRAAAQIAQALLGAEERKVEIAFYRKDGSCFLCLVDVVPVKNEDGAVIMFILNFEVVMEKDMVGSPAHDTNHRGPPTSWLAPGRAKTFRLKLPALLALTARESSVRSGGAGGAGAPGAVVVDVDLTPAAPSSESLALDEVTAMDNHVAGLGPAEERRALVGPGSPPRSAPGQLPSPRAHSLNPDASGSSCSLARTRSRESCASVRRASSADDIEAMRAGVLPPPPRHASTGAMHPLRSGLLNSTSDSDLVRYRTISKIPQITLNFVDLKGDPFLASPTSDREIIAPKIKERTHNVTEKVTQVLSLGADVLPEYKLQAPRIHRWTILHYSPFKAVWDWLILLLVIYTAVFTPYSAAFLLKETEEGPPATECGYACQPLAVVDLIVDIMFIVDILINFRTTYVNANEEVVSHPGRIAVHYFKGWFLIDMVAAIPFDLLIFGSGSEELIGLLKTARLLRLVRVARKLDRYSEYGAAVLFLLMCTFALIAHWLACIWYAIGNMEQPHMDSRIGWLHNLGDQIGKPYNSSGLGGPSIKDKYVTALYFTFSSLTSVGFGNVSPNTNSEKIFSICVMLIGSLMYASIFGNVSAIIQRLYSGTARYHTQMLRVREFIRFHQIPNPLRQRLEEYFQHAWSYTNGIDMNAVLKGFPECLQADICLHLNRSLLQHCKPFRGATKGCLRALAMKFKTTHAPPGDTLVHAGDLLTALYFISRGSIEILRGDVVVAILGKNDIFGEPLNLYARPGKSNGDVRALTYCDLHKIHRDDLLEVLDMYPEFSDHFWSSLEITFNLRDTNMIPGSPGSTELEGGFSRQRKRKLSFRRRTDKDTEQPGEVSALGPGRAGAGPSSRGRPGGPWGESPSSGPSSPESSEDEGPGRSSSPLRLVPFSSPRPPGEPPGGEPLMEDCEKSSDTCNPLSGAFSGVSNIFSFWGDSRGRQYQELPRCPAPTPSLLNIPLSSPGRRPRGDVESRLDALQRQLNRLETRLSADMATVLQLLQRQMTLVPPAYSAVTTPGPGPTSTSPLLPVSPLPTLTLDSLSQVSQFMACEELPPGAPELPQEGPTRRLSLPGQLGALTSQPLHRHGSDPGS

Structure (SMILES)	hERG current change (%, negative = inhibition) at 1uM [%]
COc1ccccc1C(=O)NCC(=O)OCC(=O)Nc1cccc(S(=O)(=O)N2CCCCCC2)c1	1.17
CC(=NCCO)c1c(O)n(C2CCCCC2)c(=O)[nH]c1=O	12.5
CC1(N(O)/C=C2\C=CC=CC2=O)CCCCC1=O (stereo not drawn)	10.3
COC(=O)C1=NN(c2ccccc2)C2(S1)S/C(=C\c1ccccc1)C(=O)N2c1ccccc1 (stereo not drawn)	10.4
COc1cc(CNCCN2CCOCC2)ccc1OCC(=O)NC(C)(C)C.Cl	12.5
COc1ccc(/C=N/NC(=O)CCCOc2ccc(Cl)cc2Cl)cc1	20.4
CCOC(=O)C1=C(N)Oc2cc(C)n(C)c(=O)c2C1c1ccncc1 (stereo not drawn)	7.92
Oc1ccc(Br)cc1/C=N/Nc1nc(N2CCCCC2)nc(N2CCOCC2)n1	12.6
Cc1c(C(=O)Nc2ccc3oc(-c4cccnc4)nc3c2)oc2ccccc12	-7.02
CC(C)NCC#CCOc1ccc(Cl)cc1.O=C(O)C(=O)O	2.36
CCCCOc1ccc(NC(=O)CN2CCN(Cc3ccccc3)CC2)cc1	1.72
CCOc1ncccc1C(=O)N=C1SCCN1C(=O)c1cccnc1OCC	4.84
Cc1ccc(S(=O)(=O)NNC(=O)c2sccc2-n2cccc2)cc1	2.39
Cc1ccccc1-n1nc(C)c(N=O)c1N	13.6
O=C(CCCN=C1NS(=O)(=O)c2ccccc21)Nc1ccc(Cl)cc1	8.87
O=C(OCc1ccccc1C(F)(F)F)c1cc([N+](=O)[O-])ccc1N1CCOCC1	-3.01
O=C(CSc1n[nH]c(-c2ccccc2)n1)N1CCCC1	43.4
Cc1cc(N2CCN(c3cccc(C(F)(F)F)c3)CC2)n2ncnc2n1	-5.52
C/C(Cn1nc([N+](=O)[O-])cc1C)=N\NC(=O)COc1c(Cl)cc(Cl)cc1Cl	-23.8
CCOC(=O)C1(Cc2cccc(F)c2)CCN(Cc2ccon2)CC1	7.83
COc1ccc(S(=O)(=O)Nc2cc(C)cc(C)n2)c2ccccc12	3.07
COc1ccc(OC)c(S(=O)(=O)N2CCC(C(=O)NCc3ccncc3)CC2)c1	19.2
CN(C)S(=O)(=O)c1ccc(=S)[nH]c1	14.1

Structure (SMILES)	hERG current change (%, negative = inhibition) at 1uM [%]
O=C(CN(C(=O)c1csnn1)c1ccccc1F)NCc1ccc2c(c1)OCO2	9.07
COc1ccccc1NC(=O)COC(=O)Cc1ccc(S(=O)(=O)N2CCCCC2)s1	17.9
CCn1cc(C(=O)Nc2ccc(OC)c(OC)c2)c2cc(OC)c(OC)cc2c1=O	0.878
COc1ccc(Cn2nnnc2C(c2ccccc2OC)N2CCC(C(N)=O)CC2)cc1 (stereo not drawn)	1.65
C=CCn1c(O)c(N=NC(=S)Nc2cccc(OC)c2)c2ccccc21	0.44
CCCc1[nH]nc2c1C(c1cccc(OC(=O)c3ccco3)c1)C(C#N)=C(N)O2 (stereo not drawn)	13.6
O=C(Nc1cccc(-c2cn3ccccc3n2)c1)C1CC1	7.14
Cc1ccccc1Cn1c(=O)n(Cc2ccco2)c(=O)c2ccccc21	8.84
Cc1cnc(C(=O)Nc2ccc(C(=O)N3CCCCC3)cc2)cn1	5.84
CC1CCc2c(sc3nc(CN4CCOCC4)nc(NS(=O)(=O)c4cccc([N+](=O)[O-])c4)c23)C1 (stereo not drawn)	4.76
CCOC(=O)c1cnc2c(ccc3ccccc32)c1NCCO	-14
CSc1nncc(/C(C)=N\Nc2cccc(C)c2)n1	1.31
Cn1c(=O)oc2cc(S(=O)(=O)NCCc3ccccc3)ccc21	-3.93
O=C(Nc1nnc(C2CCCC2)s1)C1CCC1	9.77
CCNC(=S)N(CCc1ccc(OC)c(OC)c1)Cc1cc2cc(OC)ccc2[nH]c1=O	-10.1
COc1ccc(S(=O)(=O)Cc2ccc(C(=O)N3CCOCC3)o2)cc1	5.48
COc1cccc(-c2nc(CS(=O)(=O)CC(=O)Nc3cccc(C)c3C)c(C)o2)c1	14.8
CCCNC(=O)NC(=O)CSc1nc2ccccc2c(=O)n1Cc1ccncc1	7.68
CC(N=Cc1cc([N+](=O)[O-])ccc1O)c1ccccc1 (stereo not drawn)	12.1
Cc1ccc2c(c1)c1nnc(SCC(=O)Nc3ccccc3C(F)(F)F)nc1n2CC(=O)O	11.6
O=C1CN(C(=O)c2ccccc2)C(c2ccccc2)c2cc(F)ccc2N1 (stereo not drawn)	-17.5
Cc1ccc(C(=O)N/N=C2\CCCc3ccccc32)c(C)c1	9.68
CCC(O)(c1ccccc1)C(CN1CCOCC1)c1ccccc1.Cl (stereo not drawn)	16

Structure (SMILES)	hERG current change (%, negative = inhibition) at 1uM [%]
CC1=C(C)[N+](=O)C2(O)CCCCC2(C)N1[O-] (stereo not drawn)	9.28
CC(/C=N\NC(=O)c1cccnc1)c1ccccc1 (stereo not drawn)	9.96
C/C(=N\Nc1cc(C)nc(NCc2ccccc2)n1)c1cccc([N+](=O)[O-])c1	14.3
O=C(Nc1ccccc1)Nc1ccc(S(=O)(=O)N2CCCCC2)cc1	12.5
CC1CCCN(C2(O)C(=O)Nc3ccc(Br)cc32)C1 (stereo not drawn)	17.6
COc1ccccc1NC(=O)N1CCCC1C(=O)NC12CC3CC(CC(C3)C1)C2 (stereo not drawn)	9.74
O=C1NC(=Nc2ccccc2)CS1	12.8
CC(C)(C=O)Cc1cc(C(C)(C)C)c(O)c(C(C)(C)C)c1	10.9
Cc1csc(=O)n1CC(=O)OCC(=O)NNC(=O)c1ccccc1	7.62
CSc1ncc(CN2CCC(C(=O)Nc3cccc(-c4cscn4)c3)CC2)cn1	9.87
Nc1cc(N)nc(SCC(=O)Nc2ccccc2N2CCOCC2)n1	9.81
CCOC(=O)c1cccc(OS(=O)(=O)Cc2ccccc2)c1	13.3
Cc1ccccc1-n1c(O)c(/C=N/NC(=O)c2ccccc2O)c(=O)[nH]c1=S	12.2
COc1cc(C2NC(=S)NC(C)=C2C(=O)Nc2cc(C)cc(C)c2)ccc1O (stereo not drawn)	6.58
Cc1ccc(-c2nnc(COC(=O)c3cccs3)o2)cc1	-5.44
COc1ccc(S(=O)(=O)NC(CC(=O)NCc2ccco2)C(C)C)cc1 (stereo not drawn)	5.58
COc1ccc(OC)c(-n2c(-c3cnccn3)n[nH]c2=S)c1	11.7
CCc1c(C)sc(NC(=O)c2cc(C)no2)c1C#N	13.9
CC(C)N(C(=O)CSc1nnc(CSc2ncccn2)n1C)C(C)C	13.7
CCCC(=O)Nc1ccc(NC(=O)C2CC2)cn1	2.25
O=C(NCc1nc2ccccc2[nH]1)C1=C[C@@H](c2csc3ccccc23)C[C@@H](OCCCCO)O1	5.15
O=C(Cn1cncn1)N/N=C/c1cc([N+](=O)[O-])ccc1O	5.96
COc1ccc(-c2cc(C(=O)O)c3sc(N4CCCCC4)nc3n2)cc1OC	1.33

Structure (SMILES)	hERG current change (%, negative = inhibition) at 1uM [%]
O=C(Nc1ccc(Cl)cc1)c1ccc(OC2CSC2)cc1	13.1
COc1ccc(CCNC(=O)/C=C/c2ccc(C)cc2)cc1OC	3.86
O=C(Cn1ccc2ccccc2c1=O)NCCC(=O)N1CCN(C2CCCCC2)CC1	3.99
CN(CC(=O)Nc1c(Cl)cccc1Cl)C(=O)Cc1cccs1	-2.47
Clc1cc(Br)ccc1OCCOCCN1CCCC1.O=C(O)C(=O)O	-23
CCOC(=O)N1CCN(C(=S)NC(=O)c2cc(Br)ccc2Cl)CC1	6.42
CCOC(=O)c1cnn(CCOC(=O)c2ccccc2F)c1NC(=O)c1ccccc1F	0.0433
COc1ccccc1N=C1SC(C)CN1C(=O)C1CCC1 (stereo not drawn)	9.35
COc1ccc(/C=C(\C#N)C(=O)NCc2ccccc2)cc1	20
COc1ccc(-c2nnc3sc(-c4ccccc4OC)nn23)cc1	0.831
CC12CCC(C(=O)NNC(=O)c3ccc(Br)cc3)(OC1=O)C2(C)C (stereo not drawn)	26.8
O=C(Nc1ccc2oc(=O)ccc2c1)c1ccc2ccccc2c1	19.4
COc1ccc(C2C3=C(CCCC3=O)NC3=C2C(=O)c2ccccc23)cc1 (stereo not drawn)	15
Cc1cc(NC(=O)CSCCc2ccncc2)no1	9.74
O=C(O)CC1=C(Nc2ccccc2)C(=O)N(c2ccccc2)C1c1ccc(F)cc1 (stereo not drawn)	6.65
Cc1cc(C)cc(C(=O)OCC(=O)NC2CCCC2)c1	5.26
Cl.N=C(N)SCc1ccc(O)c([N+](=O)[O-])c1	5.74
CCOc1ccc(C(C)=O)cc1CC(C(N)=O)C(N)=O	18.7
O=C(NCc1ccccc1)C1(c2ccccc2)CCN(S(=O)(=O)c2ccccc2)CC1	-11.2
COCCCNC(=O)c1cc2cc([N+](=O)[O-])cc(OC)c2oc1=O	4.34
COc1ccc(NS(=O)(=O)c2ccc(C)c(C(=O)N(C)CC(=O)Nc3cccc(OC)c3)c2)cc1	4.62

Source: paper PMC4336329 (PLoS ONE, 2015)
